Measurements as given in PMC6516726 (ACS Catalysis, 2018).

Biological target: I107L PETNR (Enterobacter cloacae, UniProt P71278, I108L)
Conditions: for ΔCp^⧧ / ΔHT0^⧧ / ΔST0^⧧: fit of kobs1 (5–40 °C) to eq 1
[1] = deuterated minus protiated coenzyme, T0 = 298 K

For [2H][C@@H]1C=CN([C@@H]2O[C@H](COP(=O)(O)OP(=O)(O)OC[C@H]3O[C@@H](n4cnc5c(N)ncnc54)[C@H](O)[C@@H]3O)[C@@H](O)[C@H]2O)C=C1C(N)=O [(R)-[4-^2H]-NADH], the “ΔCp^⧧” value (T0 = 298 K) was 0.43 ± 0.07 kJ mol^–1 K^–1, the “ΔHT0^⧧” value (T0 = 298 K) was 45.4 ± 0.3 kJ mol^–1 and the “ΔST0^⧧” value (T0 = 298 K) was “–103.9 ± 0.9 J mol^–1 K^–1”. The “Isotope Effect on ΔCp^⧧” value [1] was 0.19 ± 0.08 kJ mol^–1 K^–1, the “Isotope Effect on ΔHT0^⧧” value [1] was 6.7 ± 0.4 kJ mol^–1 and the “Isotope Effect on ΔST0^⧧” value [1] was 6.1 ± 1.2 J mol^–1 K^–1.

In the case of NC(=O)C1=CN([C@@H]2O[C@H](COP(=O)(O)OP(=O)(O)OC[C@H]3O[C@@H](n4cnc5c(N)ncnc54)[C@H](O)[C@@H]3O)[C@@H](O)[C@H]2O)C=CC1 [NADH], the KS (25 °C, 50 mM potassium phosphate pH 7.0, 20 μM enzyme) is reported as 889 ± 36 µM, the kred (25 °C, 50 mM potassium phosphate pH 7.0, 20 μM enzyme, fast phase) is reported as 1.94 ± 0.02 s^–1 and the “ΔCp^⧧” value (T0 = 298 K) is reported as 0.23 ± 0.04 kJ mol^–1 K^–1. For the same compound, the “ΔHT0^⧧” value (T0 = 298 K) was 38.7 ± 0.2 kJ mol^–1 and the “ΔST0^⧧” value (T0 = 298 K) was “–110.0 ± 0.8 J mol^–1 K^–1”.
